The supplement of paper PMC8728848
The list shows a part of the results.

Legend:
Assay in all cases: glycan array binding signal (z-score within array); higher = stronger binding
Details in all cases: glycan notation: IUPAC condensed, linker removed
[1] = target: Fuc(a1-2)[Gal(a1-3)]Gal(b1-3)GlcNAc(b1-6)GalNAc
How it was run: (§1)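 From the Consortium for Functional Glycomics database, 3228 arrays were curated, keeping only those whose protein sequence was available. Binding is given as a within-array Z-score averaged across arrays sharing a protein sequence and across linkers. Negative Z-scores can be read as non-binding.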

[2] = target: Fuc(a1-2)[Gal(a1-3)]Gal(b1-4)Glc
How it was run: as §1

[3] = target: Fuc(a1-2)[Gal(a1-3)]Gal(b1-4)GlcNAc
How it was run: as §1

[4] = target: Fuc(a1-2)[Gal(a1-3)]Gal(b1-4)GlcNAc(b1-2)Man
How it was run: as §1

[5] = target: Fuc(a1-2)[Gal(a1-3)]Gal(b1-4)GlcNAc(b1-2)Man(a1-3)[Fuc(a1-2)[Gal(a1-3)]Gal(b1-4)GlcNAc(b1-2)Man(a1-6)]Man(b1-4)GlcNAc(b1-4)GlcNAc
How it was run: as §1

[6] = target: Fuc(a1-2)[Gal(a1-3)]Gal(b1-4)GlcNAc(b1-2)Man(a1-3)[Fuc(a1-2)[Gal(a1-3)]Gal(b1-4)GlcNAc(b1-2)Man(a1-6)]Man(b1-4)GlcNAc(b1-4)[Fuc(a1-6)]GlcNAc
How it was run: as §1

[7] = target: Fuc(a1-2)[Gal(a1-3)]Gal(b1-4)GlcNAc(b1-3)GalNAc
How it was run: as §1

[8] = target: Fuc(a1-2)[Gal(a1-3)]Gal(b1-4)GlcNAc(b1-3)[Fuc(a1-2)[Gal(a1-3)]Gal(b1-4)GlcNAc(b1-6)]GalNAc
How it was run: as §1

[9] = target: Fuc(a1-2)[Gal(a1-3)]Gal(b1-4)GlcNAc(b1-6)GalNAc
How it was run: as §1

[10] = target: Fuc(a1-2)[Gal(a1-3)]Gal(b1-4)[Fuc(a1-3)]Glc
How it was run: as §1

[11] = target: Fuc(a1-2)[Gal(a1-3)]Gal(b1-4)[Fuc(a1-3)]GlcNAc
How it was run: as §1

[12] = target: Fuc(a1-2)[Gal(a1-3)]Gal(b1-4)[Fuc(a1-3)]GlcNAc(b1-3)GalNAc
How it was run: as §1

[13] = target: Fuc(a1-2)[Gal(a1-4)]Gal(b1-4)GlcNAc
How it was run: as §1

[14] = target: Fuc(a1-2)[GalNAc(a1-3)]Gal
How it was run: as §1

[15] = target: Fuc(a1-2)[GalNAc(a1-3)]Gal(b1-3)GalNAc(a1-3)[Fuc(a1-2)]Gal(b1-4)GlcNAc
How it was run: as §1

[16] = target: Fuc(a1-2)[GalNAc(a1-3)]Gal(b1-3)GalNAc(b1-3)Gal(a1-4)Gal(b1-4)Glc
How it was run: as §1

[17] = target: Fuc(a1-2)[GalNAc(a1-3)]Gal(b1-3)GlcNAc
How it was run: as §1

[18] = target: Fuc(a1-2)[GalNAc(a1-3)]Gal(b1-3)GlcNAc(b1-2)Man(a1-3)[Fuc(a1-2)[GalNAc(a1-3)]Gal(b1-3)GlcNAc(b1-2)Man(a1-6)]Man(b1-4)GlcNAc(b1-4)GlcNAc
How it was run: as §1

[19] = target: Fuc(a1-2)[GalNAc(a1-3)]Gal(b1-3)GlcNAc(b1-2)Man(a1-3)[Fuc(a1-2)[GalNAc(a1-3)]Gal(b1-3)GlcNAc(b1-2)Man(a1-6)]Man(b1-4)GlcNAc(b1-4)[Fuc(a1-6)]GlcNAc
How it was run: as §1

[20] = target: Fuc(a1-2)[GalNAc(a1-3)]Gal(b1-3)GlcNAc(b1-3)GalNAc
How it was run: as §1

[21] = target: Fuc(a1-2)[GalNAc(a1-3)]Gal(b1-3)GlcNAc(b1-6)GalNAc
How it was run: as §1

[22] = target: Fuc(a1-2)[GalNAc(a1-3)]Gal(b1-4)Glc
How it was run: as §1

[23] = target: Fuc(a1-2)[GalNAc(a1-3)]Gal(b1-4)GlcNAc
How it was run: as §1

[24] = target: Fuc(a1-2)[GalNAc(a1-3)]Gal(b1-4)GlcNAc(b1-2)Man
How it was run: as §1

[25] = target: Fuc(a1-2)[GalNAc(a1-3)]Gal(b1-4)GlcNAc(b1-2)Man(a1-3)[Fuc(a1-2)[GalNAc(a1-3)]Gal(b1-4)GlcNAc(b1-2)Man(a1-6)]Man(b1-4)GlcNAc(b1-4)GlcNAc
How it was run: as §1

[26] = target: Fuc(a1-2)[GalNAc(a1-3)]Gal(b1-4)GlcNAc(b1-2)Man(a1-3)[Fuc(a1-2)[GalNAc(a1-3)]Gal(b1-4)GlcNAc(b1-2)Man(a1-6)]Man(b1-4)GlcNAc(b1-4)[Fuc(a1-6)]GlcNAc
How it was run: as §1

[27] = target: Fuc(a1-2)[GalNAc(a1-3)]Gal(b1-4)GlcNAc(b1-2)Man(a1-3)[GalNAc(a1-3)[Fuc(a1-2)]Gal(b1-4)GlcNAc(b1-2)Man(a1-6)]Man(b1-4)GlcNAc(b1-4)GlcNAc
How it was run: as §1

[28] = target: Fuc(a1-2)[GalNAc(a1-3)]Gal(b1-4)GlcNAc(b1-3)Gal(b1-4)GlcNAc
How it was run: as §1

[29] = target: Fuc(a1-2)[GalNAc(a1-3)]Gal(b1-4)GlcNAc(b1-3)Gal(b1-4)GlcNAc(b1-3)Gal(b1-4)GlcNAc
How it was run: as §1

[30] = target: Fuc(a1-2)[GalNAc(a1-3)]Gal(b1-4)GlcNAc(b1-3)GalNAc
How it was run: as §1

[31] = target: Fuc(a1-2)[GalNAc(a1-3)]Gal(b1-4)GlcNAc(b1-3)[Fuc(a1-2)[GalNAc(a1-3)]Gal(b1-4)GlcNAc(b1-6)]GalNAc
How it was run: as §1

[32] = target: Fuc(a1-2)[GalNAc(a1-3)]Gal(b1-4)GlcNAc(b1-6)GalNAc
How it was run: as §1

[33] = target: Fuc(a1-2)[GalNAc(a1-3)]Gal(b1-4)[Fuc(a1-3)]GlcNAc
How it was run: as §1

[34] = target: Fuc(a1-2)[GalNAc(a1-3)]Gal(b1-4)[Fuc(a1-3)]GlcNAc(b1-3)GalNAc
How it was run: as §1

[35] = target: Fuc(a1-2)[GalNAc(a1-4)]Gal(b1-4)GlcNAc
How it was run: as §1

[36] = target: Fuc(a1-2)[GalNAc(b1-3)]Gal
How it was run: as §1

Fuc(a1-3)GlcNAc = target: Fuc(a1-3)GlcNAc
How it was run: as §1

[37] = target: Fuc(a1-3)[Gal(b1-4)]Glc6S
How it was run: as §1

[38] = target: Fuc(a1-3)[Gal(b1-4)]GlcNAc
How it was run: as §1

[39] = target: Fuc(a1-3)[Gal(b1-4)]GlcNAc(b1-2)Man
How it was run: as §1

[40] = target: Fuc(a1-3)[Gal(b1-4)]GlcNAc(b1-2)Man(a1-3)[Fuc(a1-3)[Gal(b1-4)]GlcNAc(b1-2)Man(a1-6)]Man(b1-4)GlcNAc(b1-4)GlcNAc
How it was run: as §1

[41] = target: Fuc(a1-3)[Gal(b1-4)]GlcNAc(b1-2)Man(a1-3)[Fuc(a1-3)[Gal(b1-4)]GlcNAc(b1-2)Man(a1-6)]Man(b1-4)GlcNAc(b1-4)[Fuc(a1-6)]GlcNAc
How it was run: as §1

[42] = target: Fuc(a1-3)[Gal(b1-4)]GlcNAc(b1-2)Man(a1-6)[Gal(b1-4)GlcNAc(b1-2)Man(a1-3)]Man(b1-4)GlcNAc(b1-4)GlcNAc
How it was run: as §1

[43] = target: Fuc(a1-3)[Gal(b1-4)]GlcNAc(b1-3)Gal(b1-3)[Fuc(a1-4)]GlcNAc
How it was run: as §1

[44] = target: Fuc(a1-3)[Gal(b1-4)]GlcNAc(b1-3)Gal(b1-4)[Fuc(a1-3)]GlcNAc
How it was run: as §1

B1: LSECtin (Homo sapiens), Q6UXB4 (protein)
chain: MDTTRYSKWGGSSEEVPGGPWGRWVHWSRRPLFLALAVLVTTVLWAVILSILLSKASTERAALLDGHDLLRTNASKQTAALGALKEEVGDCHSCCSGTQAQLQTTRAELGEAQAKLMEQESALRELRERVTQGLAEAGRGREDVRTELFRALEAVRLQNNSCEPCPTSWLSFEGSCYFFSVPKTTWAAAQDHCADASAHLVIVGGLDEQGFLTRNTRGRGYWLGLRAVRHLGKVQGYQWVDGVSLSFSHWNQGEPNDAWGRENCVMMLHTGLWNDAPCDSEKDGWICEKRHNC
Q: Which “glycan array binding signal (z-score)” value [1] does the source give for B1 here?
A: -0.131

Q: And the “glycan array binding signal (z-score)” value [2]?
A: -0.014

Q: And the “glycan array binding signal (z-score)” value [3]?
A: 0.029

Q: What about the “glycan array binding signal (z-score)” value [4] of the same binder?
A: -0.13

Q: What about the “glycan array binding signal (z-score)” value [5] of the same binder?
A: -0.032

Q: What about the “glycan array binding signal (z-score)” value [6] of the same binder?
A: -0.116

Q: And the “glycan array binding signal (z-score)” value [7]?
A: -0.131

Q: And the “glycan array binding signal (z-score)” value [8]?
A: -0.138

Q: What about the “glycan array binding signal (z-score)” value [9] of the same binder?
A: -0.124

Q: What about the “glycan array binding signal (z-score)” value [10] of the same binder?
A: -0.135

Q: What about the “glycan array binding signal (z-score)” value [11] of the same binder?
A: -0.134

Q: And the “glycan array binding signal (z-score)” value [12]?
A: -0.132

Q: What about the “glycan array binding signal (z-score)” value [13] of the same binder?
A: -0.125

Q: And the “glycan array binding signal (z-score)” value [14]?
A: -0.141

Q: And the “glycan array binding signal (z-score)” value [15]?
A: -0.119

Q: What about the “glycan array binding signal (z-score)” value [16] of the same binder?
A: -0.141

Q: What about the “glycan array binding signal (z-score)” value [17] of the same binder?
A: -0.176

Q: What about the “glycan array binding signal (z-score)” value [18] of the same binder?
A: 0.394

Q: What about the “glycan array binding signal (z-score)” value [19] of the same binder?
A: -0.142

Q: And the “glycan array binding signal (z-score)” value [20]?
A: -0.133

Q: And the “glycan array binding signal (z-score)” value [21]?
A: -0.133

Q: And the “glycan array binding signal (z-score)” value [22]?
A: -0.157

Q: What about the “glycan array binding signal (z-score)” value [23] of the same binder?
A: -0.198

Q: And the “glycan array binding signal (z-score)” value [24]?
A: -0.143

Q: What about the “glycan array binding signal (z-score)” value [25] of the same binder?
A: -0.135

Q: What about the “glycan array binding signal (z-score)” value [26] of the same binder?
A: -0.131

Q: What about the “glycan array binding signal (z-score)” value [27] of the same binder?
A: 2.77

Q: What about the “glycan array binding signal (z-score)” value [28] of the same binder?
A: -0.098

Q: What about the “glycan array binding signal (z-score)” value [29] of the same binder?
A: 0.051

Q: What about the “glycan array binding signal (z-score)” value [30] of the same binder?
A: -0.128

Q: What about the “glycan array binding signal (z-score)” value [31] of the same binder?
A: -0.132

Q: What about the “glycan array binding signal (z-score)” value [32] of the same binder?
A: -0.138

Q: And the “glycan array binding signal (z-score)” value [33]?
A: -0.13

Q: What about the “glycan array binding signal (z-score)” value [34] of the same binder?
A: -0.117

Q: And the “glycan array binding signal (z-score)” value [35]?
A: -0.204

Q: What about the “glycan array binding signal (z-score)” value [36] of the same binder?
A: -0.218

Q: And the “glycan array binding signal (z-score)” value (Fuc(a1-3)GlcNAc)?
A: -0.131

Q: And the “glycan array binding signal (z-score)” value [37]?
A: -0.078

Q: What about the “glycan array binding signal (z-score)” value [38] of the same binder?
A: -0.162

Q: And the “glycan array binding signal (z-score)” value [39]?
A: -0.136

Q: And the “glycan array binding signal (z-score)” value [40]?
A: 0.514

Q: What about the “glycan array binding signal (z-score)” value [41] of the same binder?
A: -0.124

Q: What about the “glycan array binding signal (z-score)” value [42] of the same binder?
A: -0.477

Q: What about the “glycan array binding signal (z-score)” value [43] of the same binder?
A: 0.018

Q: And the “glycan array binding signal (z-score)” value [44]?
A: -0.128
